In the RNAGym collection of RNA variant scans (doi:10.7554/elife.90254):
The source gives no read counts; variants with many changes may rest on few reads.

B1: OR4K15 (parent)
chain: GUUAACGGUCAUAGGCCAUGGAAACUAGGAGCACCAUUUCGCUGCCAGUGAAGAAAUGAACAAAGAAAAUCUGGGCCAGGCAGGCAUCAAAAGAAAUAGUCUUGCGCUCAACCAGAAAGUCUGUAAUCAUUUUAAGGGUA

Variants of: B1
Assay: self-cleavage, relative activity (ratio to wild type); higher = more cleavage; in vitro, sequencing; the parent is a self-cleaving ribozyme

Row | Variant | self-cleavage
1 | A63G A116G A117U G119A | 1.28
2 | A63G A117G U130C | 1.42
3 | A63G C76U U87A C112G | 0.01
4 | A63G G80A U103C | 0.16
5 | A63G G80U A117G | 0.04
6 | A63G G83A U97A | 2.59
7 | A63G U72C A82U | 0.15
8 | A63G U72C A92G | 0.21
9 | A63G U72C A126C | 0.11
10 | A63G U87A A89G | 1.7
11 | A63G U87C A92C A94G U102C U133C | 1.93
12 | A63G U87C A110G A118G | 0.06
13 | A63G U100G C112G | 0.02
14 | A63G U102C A116G | 1.93
15 | A63G U102C U103C A111G | 0.02
16 | A63G U103C U120C | 0.28
17 | A63G U108A A116G | 0.01
18 | A63G U120A U122C | 0.89
19 | A63G U120C A134G | 0.49
20 | A63U A67G A68U | 1.59
21 | A63U A69G A82U | 0.27
22 | A63U A86G A92G | 0.97
23 | A63U A89U A91G A95U | 1.91
24 | A63U A94G A96G | 1.42

Row | Variant | self-cleavage
25 | A63U A94G A116U | 0.23
26 | A63U A95G A110C | 0.51
27 | A63U A96G U103G U108C | 0.01
28 | A63U A110G A125G | 0.1
29 | A64C A69G A118G U122C | 0.55
30 | A64C A89G A95G U127C U131A | 1.21
31 | A64C A92U U120C A125U | 0.12
32 | A64C A94G A116G A134G | 0.22
33 | A64C C77U C88U | 1.66
34 | A64G A66U A86U | 2.24
35 | A64G A67U U87A | 1.28
36 | A64G A68G A90G A111G A125C | 0.01
37 | A64G A69G A90G U122C U133A A134G | 1.91
38 | A64G A69G U87A | 0.66
39 | A64G A78G A140G | 0.19
40 | A64G A86U A92G U100C A118G | 1.73
41 | A64G A89G U131C | 1.27
42 | A64G A90G A91G A92G A96U A114U | 0.05
43 | A64G A90G A95G | 2.03
44 | A64G A90G A116U | 0.11
45 | A64G A90U A135G | 1.91
46 | A64G A91U A96G U100C | 2.44
47 | A64G A94G A96U A111G U127C | 0.03
48 | A64G A95G C113U | 0.29

Row | Variant | self-cleavage
49 | A64G A111G U127C | 0.01
50 | A64G A111U A116G A118G U124C | 0
51 | A64G A114U U120C | 0.08
52 | A64G A116U A134G A135G | 0.03
53 | A64G A118G A125C | 0.17
54 | A64G A118G A126U | 2.68
55 | A64G C85A A86G | 1.49
56 | A64G C105U A118G | 0.19
57 | A64G G80A A96G | 0.21
58 | A64G U70A A129U | 0.72
59 | A64G U70C A78U U97C U102C U103C | 0.04
60 | A64G U70C C71U A78G A82C | 0.25
61 | A64G U70C U108C A114G U139C | 0
62 | A64G U72C G83U | 0.43
63 | A64G U72C U100A | 0.07
64 | A64G U87C A111G A116G A135G | 0.01
65 | A64G U87C A111G A118U | 0
66 | A64G U87C U108C A116G | 0
67 | A64G U97C A98G U103C | 0.61
68 | A64G U100A A110G A135G | 0.09
69 | A64G U100C A140G | 2.28
70 | A64G U108C A110C A118G | 0.01
71 | A64U A66G A90G A135G | 0.69
72 | A64U A66U A86G | 0.57

Row | Variant | self-cleavage
73 | A64U A66U A116G | 0.62
74 | A64U A68G A94G C105U | 0.05
75 | A64U A69G A86G | 1
76 | A64U A89U U127C | 1.15
77 | A64U G84A A89C | 1.49
78 | A64U U72C A94G | 0.02
79 | A64U U124A A126G | 0.6
80 | G65A U100A U102A U130G | 0.03
81 | G65U U72A A111G | 0.02
82 | A66G A67G C105A | 0.04
83 | A66G A67G U108A | 0.02
84 | A66G A67G U122C | 1.25
85 | A66G A68G A78G U102C C113U A135G | 0.02
86 | A66G A68G A111G | 0.06
87 | A66G A69G A116G | 1.16
88 | A66G A78G A118G | 0.08
89 | A66G A78G U108A | 0
90 | A66G A78G U108C | 0.03
91 | A66G A78G U122C | 0.27
92 | A66G A78U A90G | 0.18
93 | A66G A82G A86G | 0.11
94 | A66G A82U A90G | 0.03
95 | A66G A86G A96G | 2.08
96 | A66G A86G A125G | 0.15

Row | Variant | self-cleavage
97 | A66G A89U A92G | 1.47
98 | A66G A90C A117G | 1.46
99 | A66G A90G U139A | 1.78
100 | A66G A91G U122G | 2.53
101 | A66G A95G A118G A125G | 0.44
102 | A66G A95G U131C A134G | 1.35
103 | A66G A96G C112U | 0.01
104 | A66G A98C A116G A135G | 0.86
105 | A66G A110U U130C | 0.87
106 | A66G A116G A135G | 0.44
107 | A66G A116U U120C | 0.34
108 | A66G A117G U120C | 2.1
109 | A66G A117U U139G | 1.21
110 | A66G A129G U130C | 1.4
111 | A66G A129U G137U | 1.66
112 | A66G C88A A117C | 0.3
113 | A66G C121A A135U | 2.41
114 | A66G U70C A92G U102C | 0.32
115 | A66G U72C U87C | 0.26
116 | A66G U97A A117G U120G | 1.5
117 | A66G U102C A135G | 2.13
118 | A66G U103C U108C | 0.01
119 | A66G U108C A140G | 0.01
120 | A66G U108C G137A | 0.01

Row | Variant | self-cleavage
121 | A66G U120C U124C | 0.51
122 | A66G U124C A126G A134G | 0.87
123 | A66G U124C U130C | 0.67
124 | A66U A68G U102C | 1.97
125 | A66U A82C U87C A116G | 0.1
126 | A66U A89G A116G U133A A135G G138U U139A | 0
127 | A66U A117G A140G | 0.53
128 | A66U U70C A86U A91G | 0.45
129 | A66U U72C G75A A89U | 0.21
130 | A67C A69G U87C A94G | 0.89
131 | A67G A68G G79U | 0.08
132 | A67G A68G U70C | 0.86
133 | A67G A68G U131C | 1.11
134 | A67G A69G A96G | 1.67
135 | A67G A78C U102C U122C | 0.33
136 | A67G A78U A82G | 0.24
137 | A67G A82C A126G | 0.1
138 | A67G A82G A129U | 0.45
139 | A67G A82G U97C C105G | 0.02
140 | A67G A82G U132C | 0.4
141 | A67G A82G U139C | 0.5
142 | A67G A82U A126U | 0.03
143 | A67G A86G A89G A96U | 1.64
144 | A67G A86G A91G U102A U120C U127A | 0.43

Row | Variant | self-cleavage
145 | A67G A86G A114U | 0.07
146 | A67G A86G U87C | 0.86
147 | A67G A86G U102G | 0.27
148 | A67G A86U U100C U102A | 2.06
149 | A67G A89G U103C | 0.82
150 | A67G A89U A111U | 0.33
151 | A67G A90G A98U U108C | 0.01
152 | A67G A90G A117G | 1.54
153 | A67G A90U U100C | 2.86
154 | A67G A91G A135G | 1.42
155 | A67G A94G A98U U132C | 1.68
156 | A67G A95G A98G A118U | 1.94
157 | A67G A95G U127A | 2.65
158 | A67G A96G U100C | 2.31
159 | A67G A98G A135G | 0.65
160 | A67G A111G A129G | 0
161 | A67G A111G A140G | 0.02
162 | A67G A114U A117G | 0.02
163 | A67G A116G U120C | 0.29
164 | A67G A117G U120C A126G | 0.48
165 | A67G A118C U120C | 0.44
166 | A67G A118G A126G | 0.58
167 | A67G C77A U122C | 0.71
